Experimental data from PubChem BioAssay AID493208 (National Center for Advancing Translational Sciences (NCATS), 2011).
Hit rate of the full screen: of about 44,000 compounds, about 340 (0.77%) were called active. About 5% were inconclusive and are not listed. The call rests on the fitted dose curve; in most records, active means well fitted inhibition curve with a large enough effect; inconclusive means small, poorly fitted or top-dose-only effect; inactive means flat fitted curve, though single readings scatter. Some of the results follow.

Assay: Acumen qHTS Assay for Inhibitors of the mTORC1 Signaling Pathway in MEF (Tsc2-/-, p53-/-) Cells: Sytravon; further: nearly all actives have a fitted effect of over 50% in size;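 on activity change, negative = inhibition: plate controls were DMSO for no effect and rapamycin for full effect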
Conditions: phospho-rpS6 immunofluorescence/PI, 24 h; series mostly up to 38.3 µM; activity change, negative = inhibition: at the top concentration
Outline: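 Cell-based qHTS: Tsc2-/- p53-/- MEF, 24 h cpd, 37 °C; fix/perm, anti-phospho-S6 Alexa-488 + PI; Acumen 488 nm scan; pS6/PI ratio, % positive cells; rapamycin 7.5 nM = inhibition ref; PI count = viability.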
Potency means the concentration at half of the fitted maximal effect.

| SMILES | activity change, negative = inhibition | Potency |
| --- | --- | --- |
| CCOC(=O)c1nc(Nc2ccc(Cl)cc2)c2c(C)noc2n1 | inactive: 3% |  |
| O=C(Nc1cc(C(F)(F)F)ccc1Cl)c1ccc2c(c1)CCN2S(=O)(=O)c1ccccc1 | inactive: -10.5% |  |
| COc1ccc(N2CCN(C(=O)c3ccc4c(c3)N(Cc3cc(C)ccc3C)C(=O)c3ccccc3S4=O)CC2)cc1 (centres undefined) | inactive: -9.07% |  |
| Cc1cn2c(=O)cc(COc3cccc(NC(=O)c4ccccc4Cl)c3)nc2s1 | inactive: -14.7% |  |
| COc1cccc(N2CC(NC(=O)C3CCCCC3)CC2=O)c1 (centres undefined) | inactive: 6.09% |  |
| CC(=O)c1c(C)oc2ccc(NS(=O)(=O)c3ccc(C(C)C)cc3)cc12 | inactive: -24.7% |  |
| Cc1cc(C)c(Cn2c(=O)n(-c3ccccc3Cl)c(=O)c3c(C)c(C(=O)N(C)C)sc32)c(C)c1 | inactive: -2.97% |  |
| COc1ccc(C(=O)Nc2nnc(S(=O)(=O)N3CCN(c4ccc(C)cc4)CC3)s2)cc1 | inactive: -2.29% |  |
| Cc1ccccc1C(=O)Nc1cccc(-c2cn3cccnc3n2)c1 | inactive: 0.61% |  |
| COc1ccc(-c2cc3nc(C)c(CCC(=O)Nc4ccc(F)cc4F)c(C)n3n2)c(OC)c1 | inactive: -0.204% |  |
| COc1cccc(-c2cc(C(=O)Nc3ccc4c(c3)OCO4)no2)c1 | inactive: -2.81% |  |
| CCOc1ccc(C(=O)Nc2ccc(C(=O)OCc3cc(=O)n4nc(CC)sc4n3)cc2)cc1 | inactive: 1.21% |  |
| COC(=O)c1ccc(NC(=O)N2CCC(CN3CCc4ccccc4C3)CC2)cc1 | inactive: 1.87% |  |
| COc1ccc(NC(=O)CSc2ccc(-c3cccs3)nn2)cc1 | inactive: -1.98% |  |
| COc1ccc(/C=C/C(=O)N2CCC(c3nc4ccccc4o3)CC2)cc1 | inactive: 1.21% |  |
| CCOc1ccc(N(CC)S(=O)(=O)N2CCCC(C(=O)Nc3ccc(NC(C)=O)cc3)C2)cc1 (centres undefined) | inactive: -9.74% |  |
| CCS(=O)(=O)c1nc(S(=O)(=O)c2ccc(C)cc2)c(NCc2ccc(Cl)cc2)s1 | inactive: -9.39% |  |
| CCOC(=O)c1ccc(NS(=O)(=O)c2cn(C)c(C)n2)cc1 | inactive: -0.0286% |  |
| Cc1ccc(S(=O)(=O)N2CCCc3cc(NC(=O)c4ccc(F)c(F)c4)ccc32)cc1 | inactive: 14.9% |  |
| COc1cccc(C(=O)Nc2cc(-c3ccccc3)nn2-c2ccccc2)c1 | inactive: -1.1% |  |
| CCOc1ccc(-c2c(C)nn3c(-c4ccccc4)c(C(=O)NCCOC)cnc23)cc1OCC | inactive: 2.02% |  |
| CCOc1ccc(NC(=O)Cn2cc(C(=O)c3ccc(OCC)cc3)c(=O)c3cc4c(cc32)OCCO4)cc1 | inactive: 0.947% |  |
| CN(C)S(=O)(=O)N1CCC(n2cnc3cccnc32)CC1 | inactive: 0% |  |
| COc1ccccc1Cn1c(CNS(=O)(=O)c2ccc(CC(C)C)cc2)nc2cccnc21 | inactive: 0.0124% |  |

| SMILES | activity change, negative = inhibition | Potency |
| --- | --- | --- |
| Cc1ccc(CCNC(=O)c2cc3cc4cc(C)ccc4nc3s2)cc1 | inactive: -21.2% |  |
| COc1ccc(NC(=O)N(C(C)C)C2CCN(C(C)=O)CC2)c(OC)c1 | inactive: 10.5% |  |
| COc1cccc(N2C(=O)C(CC(=O)Nc3ccc(F)cc3)N(CCC3=CCCCC3)C2=O)c1 (centres undefined) | inactive: 3.6% |  |
| CCc1ccc(NC(=O)CC2C(=O)N(c3ccc(C)cc3)C(=O)N2CCc2ccncc2)cc1 (centres undefined) | inactive: -0.195% |  |
| COC(=O)Cc1c(C)c2cc3c(c(C)c2oc1=O)OCN(CCc1ccc(F)cc1)C3 | inactive: 1.92% |  |
| COc1cccc(NC(=O)CN2C(=O)COc3ccc(S(=O)(=O)N4CCCCCC4)cc32)c1 | inactive: -0.525% |  |
| O=C1C2=C(Nc3ccccc3SC2c2ccc(Cl)c(Cl)c2)c2ccccc21 (centres undefined) | inactive: -7.86% |  |
| Cc1cccc(C)c1OCC(=O)N1CCC(c2nc3ccccc3o2)CC1 | inactive: -0.58% |  |
| Nc1c(C(=O)NCc2ccc3c(c2)OCO3)nnn1CC(=O)Nc1ccc(Br)cc1 | inactive: -29% |  |
| COc1ccc(NC(=O)CN(C)S(=O)(=O)c2ccc(C(=O)N3CCOCC3)s2)cc1 | inactive: 0% |  |
| Cc1cc(SCC(=O)Nc2ccc(Cl)cc2)nc2ccccc12 | inactive: -14.7% |  |
| Cc1ccc(Cn2cc(C(=O)c3ccc(C)cc3)c(=O)c3ccc(C)nc32)cc1 | inactive: -11.1% |  |
| CCc1ccc(-c2cc(C)no2)cc1S(=O)(=O)Nc1ccc(Cl)cn1 | inactive: 7.21% |  |
| Cc1cccc(NC(=O)CSc2cn(CC(=O)N3CCCC3)c3ccccc23)c1C | inactive: -17.7% |  |
| CC(=O)N1CCCc2cc(S(=O)(=O)N3CCCC(C(=O)NCc4ccccc4)C3)ccc21 (centres undefined) | inactive: -10.5% |  |
| COc1cc(OC)c(NC(=O)c2cc3c(s2)-c2ccc(Cl)cc2SC3)cc1Cl | inactive: -1.52% |  |
| Cc1cccc(N2CCN(C(=O)C3CCN(Cc4nc(-c5ccc(Cl)cc5)oc4C)CC3)CC2)c1C | inactive: -0.379% |  |
| CCc1nn2c(-c3ccco3)ccnc2c1-c1ccccc1 | inactive: -5.72% |  |
| CCOC(=O)c1cc(S(=O)(=O)Nc2ccc(OC(F)(F)F)cc2)[nH]n1 | inactive: -6.04% |  |
| CCC1CN(C(=O)N2CCC(C(=O)NCc3cc(OC)ccc3OC)CC2)c2ccccc2O1 (centres undefined) | inactive: 3.29% |  |
| Cn1c(C(=O)NCc2ccc(F)cc2)cc2cc(S(=O)(=O)N3CCCCC3)ccc21 | inactive: 0% |  |
| COc1ccc(NC(=O)CSc2nc(-c3ccc(OC)cc3)cc(=O)[nH]2)cc1 | inactive: 8.75% |  |
| CCN(C(=O)Cn1c(SCC(=O)NCc2ccccc2)nc2ccccc21)c1cccc(C)c1 | inactive: 0% |  |
| COc1ccc(-c2cc3ccc(O)c(CN4CCN(CCO)CC4)c3oc2=O)cc1OC | inactive: 2% |  |

| SMILES | activity change, negative = inhibition | Potency |
| --- | --- | --- |
| O=C(Nc1cccc(Cl)c1Cl)c1cc2nc(-c3ccc4c(c3)OCO4)cc(C(F)(F)F)n2n1 | inactive: -0.128% |  |
| Cc1cccn2c(Nc3ccc4c(c3)OCCO4)c(-c3ccc(Br)o3)nc12 | inactive: -0.898% |  |
| COc1ccc(OC)c(CNC(=O)c2cc(-c3ccc(Cl)s3)nc3ccccc23)c1 | inactive: -5.59% |  |
| COc1cc(-c2nc3n(n2)C(c2ccc(F)cc2)C(C(N)=O)=C(C)N3)cc(OC)c1OC (centres undefined) | inactive: -7.18% |  |
| Cc1ccc(-n2nc(C(=O)NCCc3cccc(C)c3)c3c4ccccc4n(C)c3c2=O)cc1 | inactive: -12.3% |  |
| COc1ccccc1NC(=O)c1oc2ccccc2c1NC(=O)c1ccc(S(=O)(=O)N(C)C)cc1 | inactive: -1.61% |  |
| Cc1ccc(CNC(=O)c2cc(C3CC3)nc3c2c(C)nn3-c2cccc(Cl)c2C)cc1 | inactive: -21.2% |  |
| CCCN(CCC)C(=O)c1c[nH]c2ccc(S(=O)(=O)Nc3cc(C)cc(C)c3)cc2c1=O | inactive: -0.828% |  |
| Cc1ccc(NC(=O)c2nc(S(=O)(=O)Cc3cccc(C)c3)ncc2Cl)cc1 |  | active: 5.85 µM |
| COc1cc(C(=O)Nc2ccc(-c3cc(C(F)(F)F)nn3-c3ccccc3)cc2)cc(OC)c1OC | inactive: -28.8% |  |
| COc1ccccc1CNc1nc(-c2ccco2)nn1S(=O)(=O)c1ccc(Cl)cc1 | inactive: -3.09% |  |
| Cc1ccc(S(=O)(=O)Nc2cc(Cl)c3oc4c(c3c2)C(=O)CC(C)(C)C4)cc1 | inactive: -10.9% |  |
| COCCNC(=O)C(=O)Nc1c2c(nn1-c1ccccc1)CS(=O)(=O)C2 | inactive: -0.307% |  |
| Cc1ccccc1NC(=O)CSc1nc2ccc(NC(=O)COc3ccccc3F)cc2s1 | inactive: -25.7% |  |
| COc1cc(OC)c(NC(=O)Cn2c(=O)cc(C(F)(F)F)c3c(C)nn(C)c32)cc1Cl | inactive: -25.6% |  |
| CCc1ccccc1NC(=O)c1cnn2c(C(F)(F)F)cc(-c3ccc(OC)c(OC)c3)nc12 | inactive: -12.9% |  |
| CCOC(=O)c1cnn(-c2cccc(F)c2)c1C1CCNCC1 | inactive: -2.35% |  |
| COc1ccccc1OCc1ccc(C(=O)Nc2ccc(C)c(C)c2)o1 | inactive: -5.12% |  |
| Cc1cccc(NC(=O)Cn2nc(N3CCN(c4ccccc4)CC3)ccc2=O)c1C | inactive: -5.15% |  |
| CCOC(=O)c1c(C)sc(-c2c(-c3cc(C)ccc3C)[nH]c3c2c(=O)[nH]c(=O)n3C)c1O | inactive: -4.92% |  |
| O=C(NCc1ccc(F)cc1)C1CCN(C(=O)c2cnn(-c3ccccc3)c2-n2cccc2)CC1 | inactive: 0.456% |  |
| O=C(Nc1ccccc1C(=O)O)c1cccc(S(=O)(=O)N2CCCC2)c1 | inactive: -5.86% |  |
| CCCCN(CC)CCCNC(=O)c1cn(C)c2ccc(S(=O)(=O)N(C)C3CCCCC3)cc2c1=O | inactive: 8.41% |  |
| CCOc1cc(C(=O)NCc2ccc3c(c2)CCN3C(=O)CC)cc(OCC)c1OCC | inactive: -12.5% |  |

| SMILES | activity change, negative = inhibition | Potency |
| --- | --- | --- |
| COc1cccc(CNC(=O)CCC(=O)N2CC3CCCN3c3ccccc32)c1 (centres undefined) | inactive: 1.51% |  |
| Cc1ccccc1NC(=O)CN(C)S(=O)(=O)c1cccc2nsnc12 | inactive: 1.36% |  |
| CCC(Cn1nnc2ccccc2c1=O)NC(=O)Nc1cccc(Cl)c1 (centres undefined) | inactive: 4.64% |  |
| Cc1ccc(C(=O)N2CCN(c3ccccc3F)CC2)cc1NC(=O)c1nsc2ccccc12 | inactive: 0.432% |  |
| COc1ccc(-c2[nH]ncc2C(=O)NCc2ccc(F)cc2)cc1 | inactive: -0.13% |  |
| CCc1cccc(NC(=O)Cn2c(=O)n(CC3CCC(C(=O)NCCc4ccccc4)CC3)c(=O)c3ccccc32)c1 (centres undefined) | inactive: 7.25% |  |
| COc1ccccc1CCNC(=O)Cc1c(C)c2c(cc(C)c3c(C)coc32)oc1=O | inactive: -4.28% |  |
| COc1ccc(N2C(=O)C(CC(=O)Nc3ccc(F)cc3)N(CCC3=CCCCC3)C2=O)cc1 (centres undefined) | inactive: -0.533% |  |
| O=C(NC1CC(=O)N(c2cccc(F)c2)C1)C1CCCCC1 (centres undefined) | inactive: 1.03% |  |
| CN(C(=O)Nc1cn(C)c(=O)c2ccccc12)c1ccccc1 | inactive: -23.5% |  |
| O=C(CSC1=Nc2ccccc2N=C(c2ccc(F)cc2)C1)Nc1cc(F)ccc1F | inactive: -13.9% |  |
| COc1ccc(Cl)cc1NC(=O)CN1c2ccccc2S(=O)(=O)c2ccccc21 | inactive: -20.5% |  |
| COCCCNC(=O)c1c(NC(=O)c2cc(=O)c3cc(C)c(C)cc3o2)sc2c1CCCC2 | inactive: -6.91% |  |
| CCCCNc1cc(NC2CCCCC2)c2c3c(onc13)-c1ccccc1C2=O | inactive: -0.129% |  |
| Cc1ccc(SCC(=O)Nc2cccc(-c3nc4cc(Cl)ccc4o3)c2C)cc1 | inactive: -5.65% |  |
| CCCOc1ccc(CNC(=O)C2CCN(c3nc4ccccc4nc3C(F)(F)F)CC2)cc1 | inactive: 3.24% |  |
| CCn1cc2nc(SCc3cccc(OC)c3)n(Cc3ccc(Cl)cc3)c(=O)c2n1 | inactive: -5.45% |  |
| COC(=O)c1cc2sccc2n1Cc1ccccc1 | inactive: -4.33% |  |
| CC1=C(C(=O)Nc2ccccc2Cl)C(c2cccs2)n2ncnc2N1 (centres undefined) | inactive: -14.5% |  |
| O=C(CCC1N=C2c3ccccc3N=C(SCc3cccc(F)c3)N2C1=O)NC1CCCCC1 (centres undefined) | inactive: -0.889% |  |
| Cc1cc(NS(=O)(=O)c2ccc(NC(=O)COc3c(C)cc(Br)cc3C)cc2)no1 | inactive: -0.938% |  |
| O=S(=O)(NCc1ccccc1)c1ccc2[nH]c3c(c2c1)CCCCC3 | inactive: -25% |  |
